We go through 62 compounds from publication PMC6919601, “Identification of Plasmodium dipeptidyl aminopeptidase allosteric inhibitors by high throughput screening” (PLoS ONE, 2019).

Structures are written as SMILES. Hit rate of the full screen: of about 110,000 compounds, about 230 (0.21%) showed an effect of 50% or more. The list shows a part of the results.
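Further: 30 min substrate incubation versus DMSO and 10 µM JCP410 controls.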

DPAP1, sequence (Q8IIJ9 whole entry, looked up): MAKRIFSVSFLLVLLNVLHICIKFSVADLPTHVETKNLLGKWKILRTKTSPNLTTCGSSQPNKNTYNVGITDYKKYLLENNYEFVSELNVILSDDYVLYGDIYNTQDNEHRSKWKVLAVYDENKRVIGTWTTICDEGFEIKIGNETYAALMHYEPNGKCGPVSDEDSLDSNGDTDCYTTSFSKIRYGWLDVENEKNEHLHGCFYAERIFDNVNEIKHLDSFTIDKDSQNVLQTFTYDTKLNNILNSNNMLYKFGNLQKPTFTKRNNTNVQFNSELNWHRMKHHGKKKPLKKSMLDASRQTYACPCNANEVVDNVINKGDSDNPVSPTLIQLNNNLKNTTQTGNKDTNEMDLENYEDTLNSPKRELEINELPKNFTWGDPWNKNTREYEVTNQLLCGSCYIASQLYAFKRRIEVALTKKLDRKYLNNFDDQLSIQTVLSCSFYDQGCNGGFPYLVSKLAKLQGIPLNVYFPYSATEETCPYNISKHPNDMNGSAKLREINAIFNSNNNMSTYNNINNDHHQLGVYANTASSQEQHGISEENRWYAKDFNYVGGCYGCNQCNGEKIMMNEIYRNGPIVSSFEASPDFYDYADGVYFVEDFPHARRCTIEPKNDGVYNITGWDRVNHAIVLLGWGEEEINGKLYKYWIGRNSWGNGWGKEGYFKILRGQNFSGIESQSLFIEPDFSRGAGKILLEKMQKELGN

This test addresses DPAP1 (Plasmodium falciparum, UniProt Q8IIJ9). Description: primary screen, percent inhibition; read by cleavage of a fluorogenic dipeptide substrate; higher = more effect of the substance. Set-up: species or system P. falciparum D10 trophozoite lysates; single well.
For `COC(=O)c1cc(S(=O)(=O)N2CCN(C(=O)c3ccco3)CC2)cn1C`, the “% Inhibition @ 10 uM” value was 3.95%. Take `O=C(NC1CCCCCC1)c1oc(=O)c2ccccc2c1-c1ccccc1`: the “% Inhibition @ 10 uM” value is given as 1.9%. Consider `CC(=O)Nc1c(C(=O)N2CCc3ccccc3C2)cnn1-c1ccccc1Cl`, for which the “% Inhibition @ 10 uM” value is reported as 0.583%. Under `CC1=C(C(=O)NC(C)CCc2ccccc2)C2(CCC(C)CC2)OC1=O` (centres unmarked) stands 3.19%. Regarding `O=C(NC12CC3CC(CC(C3)C1)C2)C(=O)c1c[nH]c2ccccc12`, the “% Inhibition @ 10 uM” value is reported as -0.988%. Under `O=C(Cn1cc(C(=O)C(F)(F)F)c2ccccc21)NC1CCCC1` stands 0.475%.

Regarding `COc1ccc(C(Cc2ccccc2)NC2CN3CCC2CC3)cc1` (centres unmarked), the “% Inhibition @ 10 uM” value is recorded as -4.82%. Under `COc1ccc(/C=C2\N=C(c3ccccc3F)OC2=O)cc1` stands -4.27%. Under `O=S(=O)(c1ccccc1)c1nnn2c1nc(NCC1CCCO1)c1ccccc12` (centres unmarked) stands 6.41%. `CCOC(=O)N1CCN(C(=O)CNC(=S)N(Cc2cccs2)C2CCCC2)CC1`: the “% Inhibition @ 10 uM” value is given as 2.9%. As to `O=c1c2c([nH]c(=S)n1C1CCCCC1)-c1ccccc1CC21CCCCC1`, the “% Inhibition @ 10 uM” value is -5.62%. Take `N#Cc1sc2nc(-c3ccccc3)ccc2c1N`: the “% Inhibition @ 10 uM” value came to 4.66%.

Regarding `O=C(O)c1cccc(-c2ccc(/C=C3\NC(=O)N(Cc4ccccc4F)C3=O)o2)c1`, the “% Inhibition @ 10 uM” value was determined as 6.57%. As to `CCOC(=O)/C(=C\N1CCc2ccccc2C1)C(C)=O`, the “% Inhibition @ 10 uM” value was determined as 1.18%.

For the compound `COc1cc(/C=C2/C(=N)N3C(SCC(C)C)=NSC3=NC2=O)cc(OC)c1OC`, the “% Inhibition @ 10 uM” value came out at 5.5%. To `Cc1ccc(C)c(CSc2cn(CC(=O)N3CCOCC3)c3ccccc23)c1` belongs -3.13%; to `O=C(CNS(=O)(=O)c1ccc(Br)s1)N1CCC2(CC1)OCCO2`, -2.65%. To `OCC1CCCN(Cc2cc(F)ccc2F)C1` (centres unmarked) belongs -2.02%; to `COc1cc(CN2CCSCC2)cc(OC)c1`, -0.833%; to `CSc1ccc(/C=C(\C#N)c2nc3cc(C)ccc3[nH]2)cc1`, 20.5%. Under `Cc1ccc(O)c(C2=NN3C(C2)c2ccccc2OC3c2ccncc2)c1` (centres unmarked) stands -3.48%; under `CCC(C)NC(=O)CN(c1ccccc1OC)S(=O)(=O)c1ccccc1` (centres unmarked), -3.75%. In the case of `CCN(CC)C(=O)C1CCCN(Cc2ccc(Cl)c([N+](=O)[O-])c2)C1` (centres unmarked), the “% Inhibition @ 10 uM” value came out at 0.847%. Regarding `CCOc1ccccc1CNC(=O)CCCn1ncn2c(cc3sc(CC)cc32)c1=O`, the “% Inhibition @ 10 uM” value turned out to be 3.29%. As for `COCCN1C(=O)/C(=C/c2ccc(N3CCCC3)cc2)S/C1=N\c1ccccc1`, the “% Inhibition @ 10 uM” value was -3.25%. As for `CC1(C)CC(=O)C(/C=N/CCCN2CCOCC2)=C(O)C1`, the “% Inhibition @ 10 uM” value is listed as -6.51%. On to `C=CCOc1ccc(C(=O)C2=C(O)C(=O)N(CCCN(C)C)C2c2ccc(Cl)cc2)cc1C` (centres unmarked), for which the “% Inhibition @ 10 uM” value was -1.93%. Under `Cc1ccc(C(=O)N(Cc2cccc(F)c2)C2CCS(=O)(=O)C2)cc1` (centres unmarked) stands -1.35%; under `O=C(O)CCC(=O)Nc1ccccc1C(=O)NC1CCCCC1`, 6.61%; under `Cc1oc2ncn(C)c(=O)c2c1C(=O)NCc1ccc(F)cc1`, -2.19%. To `Clc1cccc(OCCCCCn2ccnc2)c1` belongs -7.06%; to `Cc1nc2scc(C)n2c(=O)c1S(=O)(=O)NCc1ccco1`, -1.55%.

With `CCC[C@H](NC(=O)C1(NC(=O)c2cccnc2)CCCCC1)C(=O)c1nc2ccccc2o1`, the “% Inhibition @ 10 uM” value was 0.173%. Under `COc1ccc2cc(C(C)c3nc4ccccc4n3C)ccc2c1` (centres unmarked) stands 1.12%; under `CCc1nn(CCCC(=O)NCCc2ccc(S(N)(=O)=O)cc2)c(=O)c2cc3occc3n12`, -0.281%; under `CC[C@H](NC(=O)C(CC(=O)OC1CCCCC1)NC(=O)c1ccc(-c2ccccc2Cl)cc1)C(=O)c1nc2ccccc2o1` (some centres unmarked), -8.81%. To `Cc1ccc2cc(CNCC(C)O)c(O)nc2c1C` (centres unmarked) belongs -4.54%; to `Cc1cccc(NC(=O)/C=C\C(=O)O)c1`, 3.25%; to `Cc1nc2nc(CNC(=O)c3ccccc3)nn2c(C)c1CCC(=O)NC(C)C`, -0.447%. To `O=C(NCCc1c[nH]cn1)c1ccc(Cn2c(SCc3ccc(F)cc3)nc3cccnc32)cc1` belongs 6.3%. For the compound `COC(=O)c1cnn2c(C(F)(F)F)cc(-c3ccccc3)nc12`, the “% Inhibition @ 10 uM” value was -3.44%. In the case of `COc1cccc(-c2noc(-c3cc(Cl)ccc3OC)n2)c1`, the “% Inhibition @ 10 uM” value is -2.4%. To `CCOc1nc(SCCOc2ccccc2)nc(N(C)C)n1` belongs -2.03%; to `Cc1cc(N2CCN(c3ccccc3)CC2)nc(-c2ccc(Br)cc2)n1`, 5.03%; to `CCN(CC)S(=O)(=O)c1ccc(N/C=C2\C(=O)N(C)C(=O)C(C#N)=C2C)cc1`, 2.36%.

For `C=CCOc1c(Cl)cc(CNc2nc[nH]n2)cc1OC`, the “% Inhibition @ 10 uM” value is on record as 3.8%. To `CCCc1[nH]nc2c1/C(=N\O)CC(C)(C)C2` belongs -8.21%. `CCOc1ccccc1/C=C1\N=C(C2CCCCC2)OC1=O`: the “% Inhibition @ 10 uM” value was determined as 2.28%. To `COc1cc(/C=C/C(=O)C(C)(C)O)cc(OC)c1OC` belongs -4.21%; to `Cc1oc2ncn(C)c(=O)c2c1C(=O)NCc1ccco1`, -2.19%. On to `CCOc1ccccc1-n1cc2c(c1-c1cccc(C)c1)c(=O)n(C)c(=O)n2C`, for which the “% Inhibition @ 10 uM” value was 5.17%. To `COc1ccc(C2C(C#N)=C(N)Oc3[nH]nc(C)c32)cc1COc1ccccc1Cl` (centres unmarked) belongs -3.46%; to `COc1cc(/C=C2/C(=N)N3N=C(c4ccccc4Cl)SC3=NC2=O)cc(OC)c1OC`, -1.6%. `CCN1C(=O)NC(=O)/C(=C\c2cn(CC(=O)N3CCCCC3)c3ccccc23)C1=O`: the “% Inhibition @ 10 uM” value is on record as -3.06%. `CC1(C)CC(=O)C2=C(C1)OC(N)=C(C#N)C2c1ccccc1OCc1ccc(Br)cc1` (centres unmarked): the “% Inhibition @ 10 uM” value is listed as -2.88%. Under `Cc1ccc(S(=O)(=O)N2CCN(C)CC2)cc1` stands -3.13%; under `Cc1ccc(CS(=O)(=O)Cc2ccc(C(=O)NCc3ccco3)o2)cc1`, 5.35%.

In the case of `Cc1cccc(NC(=O)c2sc3nc4c(cc3c2N)CCC4)c1`, the “% Inhibition @ 10 uM” value came out at 15.6%.

With `COC(=O)c1c(-n2cccc2)sc(C)c1C`, the “% Inhibition @ 10 uM” value was 3.29%. To `CNC(=O)c1cc(-c2ccccc2)c(N2CCCCC2)s1` belongs -2.83%; to `COc1cccc(C2Nc3ccccc3C(=O)N2Cc2ccccc2)c1` (centres unmarked), -7%. Under `Cn1c(=O)c2sccc2n2c(CCCC(=O)N3CCC(N4CCCCC4)CC3)nnc12` stands -4.76%.
